Data: PubChem BioAssay AID485294 (National Center for Advancing Translational Sciences (NCATS), 2010)
The campaign covered roughly 370,000 compounds. About 150 (0.041%) were called active. The inconclusive results got no clear call from the source; some entries with a clear call stand among them for comparison. The call rests on the fitted dose curve; in most records, active means well fitted inhibition curve with a large enough effect; inconclusive means small, poorly fitted or top-dose-only effect; inactive means flat fitted curve, though single readings scatter. No potency is given beside an inconclusive call; the fits are too rough.

target: Beta-lactamase (Escherichia coli (strain K12)) (UniProt P00811); assay: qHTS Inhibitors of AmpC Beta-Lactamase (assay with detergent); details: AmpC hydrolysis of nitrocefin, absorbance 480 nm, 0.01% Triton; series mostly up to 114 µM; further: nearly all actives have a fitted effect of over 25% in size
How it was run: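 AmpC (5.3 nM in the dispensed reagent) in 20 mM phosphate pH 7.0 with 0.01% (detergent screen) or 0.0001% Triton X-100 was preincubated with compounds for 15 min at room temperature. Nitrocefin was then added from an 800 uM solution, and hydrolysis was followed at 480 nm.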
Potency means the concentration at half of the fitted maximal effect; tags describe the fitted curve by direction and shape.

Chain of UniProt P00811 (P00811 whole entry, looked up): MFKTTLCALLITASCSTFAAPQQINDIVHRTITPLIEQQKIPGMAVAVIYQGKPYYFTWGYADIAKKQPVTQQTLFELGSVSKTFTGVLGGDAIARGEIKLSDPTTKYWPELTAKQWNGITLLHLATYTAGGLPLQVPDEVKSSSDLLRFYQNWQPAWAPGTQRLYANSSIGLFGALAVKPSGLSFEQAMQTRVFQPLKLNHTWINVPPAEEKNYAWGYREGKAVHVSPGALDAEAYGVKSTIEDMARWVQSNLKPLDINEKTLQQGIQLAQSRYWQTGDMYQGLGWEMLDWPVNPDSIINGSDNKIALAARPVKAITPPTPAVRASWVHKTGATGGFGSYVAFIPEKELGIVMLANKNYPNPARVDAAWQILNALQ

Row | Structure (SMILES) | Potency
1 | Cc1ccc(Cn2c(C(C)Nc3nc(-c4ccc(C)cc4)cs3)nc3cc(Cl)c(Cl)cc32)cc1 (stereo not given) | inconclusive [inhibitor, full curve, poor fit]
2 | COc1ccccc1C(=O)NCC(=O)N/N=C/c1cc(Br)ccc1OC(=O)/C=C\c1ccco1 | inactive
3 | CN(C)c1ccc(C(CNC(=O)COc2ccccc2)N2CCOCC2)cc1 (stereo not given) | inconclusive [inhibitor, single point]
4 | Cc1oc(C)c2c(=O)ccc3c(c12)OC(N)=C(C#N)C3c1ccccc1 (stereo not given) | inactive
5 | O=C(Nc1ccc2c(c1)OCO2)N1CCOCC1 | inconclusive [inhibitor, single point]
6 | CC(C)(C)C(=O)N1c2ccccc2CCc2ccccc21 | inconclusive [inhibitor, full curve, poor fit]
7 | N#C/C(=C/c1ccc(N2CCCCC2)cc1)c1cccc(F)c1 | inconclusive [inhibitor, partial curve, poor fit]
8 | O=C(/C=C/c1ccc([N+](=O)[O-])cc1)NNC(=O)C1CC1 | inactive
9 | CCc1nnc2n1N=C(c1ccc(OC)cc1)CS2 | inconclusive [inhibitor, partial curve, poor fit]
10 | O=C(N/N=C/c1coc2ccccc2c1=O)c1ccccc1 | inactive
11 | CCCc1nnc(-c2ccc(OC)cc2)o1 | inactive
12 | Cc1cccc(C)c1NC(=O)C1(NC(=O)C2CCC(=O)N2)CCCCC1 (stereo not given) | inconclusive [inhibitor, partial curve, poor fit]
13 | CC1C/C(=N/N2C(=O)CSC2=S)CC(C)(C)C1 (stereo not given) | inactive
14 | C=C(C)C(=O)OCC(O)COc1ccc(C(C)(C)c2ccc(OCC(O)COC(=O)C(=C)C)cc2)cc1 (stereo not given) | inconclusive [inhibitor, partial curve, poor fit]
15 | CCN(C(=O)C1CCCN(S(=O)(=O)c2c(C)noc2/C=C/N(C)C)C1)c1cccc(C)c1 (stereo not given) | inactive
16 | COc1ccccc1NC(=S)NC(NC(=O)CC(C)C)C(Cl)(Cl)Cl (stereo not given) | inactive
17 | COc1ccc(OC)c(S(=O)(=O)n2cnc3cc(C)c(C)cc32)c1 | inconclusive [inhibitor, full curve, poor fit]
18 | CCS(=O)(=O)N1Cc2ccccc2CC1C(=O)Nc1nc2ccc(F)cc2s1 (stereo not given) | inconclusive [inhibitor, full curve, poor fit]
19 | CCCn1nnnc1SCC(=O)Nc1nnc(CC)s1 | inconclusive [inhibitor, full curve, poor fit]
20 | CCOC(=O)c1ccc(Nc2nc(N3CCOCC3)nc(N3CCOCC3)n2)cc1 | inactive
21 | C/C(=N\NC(=O)c1cccnc1)c1ccc(C)c([N+](=O)[O-])c1 | inactive
22 | Fc1ccc(Nc2c3c(nc4ccccc24)CCC3)cc1 | inconclusive [inhibitor, full curve, poor fit]

Row | Structure (SMILES) | Potency
23 | COc1ccc(O)c(C(C)(C)C)c1 | inactive
24 | Nc1c(C(=O)Nc2ccc3c(c2)OCCO3)nnn1Cc1cccc(Br)c1 | inconclusive [inhibitor, partial curve, poor fit]
25 | COc1ccc(CNC(=O)CCC(=O)N2CCN(S(=O)(=O)c3cc([N+](=O)[O-])ccc3C)CC2)cc1 | inconclusive [inhibitor, full curve, poor fit]
26 | CC(=O)NCCOc1nc(N(C)C)nc(N2CCCCC2)n1 | inactive
27 | CCn1ncc(/C=N\NC(=O)c2csc3ccccc23)c1C | inconclusive [inhibitor, single point]
28 | COc1ccc(/C=C(\C#N)C(=O)Nc2cc(C)c(Cl)cc2OC)cc1O | inconclusive [inhibitor, single point]
29 | CCc1ccc(CN(Cc2ccco2)c2cnc(S(C)(=O)=O)nc2C(=O)Nc2ccccc2Cl)cc1 | inactive
30 | CC1CC(N(C(=O)C2CC2)c2ccccc2)c2ccccc2N1C(=O)C1CC1 (stereo not given) | inconclusive [inhibitor, full curve, poor fit]
31 | Cc1c(Nc2cc(N3CCCC(C)C3)c3nonc3c2[N+](=O)[O-])c(=O)n(-c2ccccc2)n1C (stereo not given) | inconclusive [inhibitor, full curve, poor fit]
32 | CCOC(=O)CCc1c(C)nc2cc(-c3ccccc3OC)[nH]n2c1=O | inconclusive [inhibitor, full curve, poor fit]
33 | O=C(N/N=C/c1ccccc1Cl)c1cccc(F)c1 | inconclusive [inhibitor, partial curve, poor fit]
34 | COC(=O)CSc1nc2c(c(-c3ccco3)c1C#N)CCCC2 | inconclusive [inhibitor, partial curve, poor fit]
35 | CC1(C)CC(=O)C/C(=N/NC(=O)C2CCN(S(=O)(=O)c3cccs3)CC2)C1 | inconclusive [inhibitor, full curve, poor fit]
36 | COC(=O)Cc1c(C)c2c(OCc3nn[nH]n3)cc(C)cc2oc1=O | inconclusive [inhibitor, full curve, poor fit]
37 | O=C(CN1CC(=O)Nc2ccccc21)NCCc1ccc(Cl)cc1Cl | inconclusive [inhibitor, partial curve]
38 | O=C(COc1ccc(Cl)cc1)Nc1ccccc1Cl | inconclusive [inhibitor, full curve, poor fit]
39 | COc1ccc(NC(=O)Cn2c(C)cc(=O)c3cccc(OC)c32)cc1 | inconclusive [inhibitor, full curve]
40 | COc1cccc(C(=O)Nc2cc(NC(=O)c3cccs3)ccc2C)c1 | inconclusive [inhibitor, single point]
41 | CCOc1cccc(C(=O)N(Cc2ccc(F)cc2)C2CCS(=O)(=O)C2)c1 (stereo not given) | inconclusive [inhibitor, partial curve, poor fit]
42 | O=C(Nc1nnc(-c2ccccc2)o1)Nc1ccccc1Cl | inconclusive [inhibitor, full curve]
43 | Nc1ccc2nn(-c3cccc4ccccc34)nc2c1 | inconclusive [inhibitor, single point]
44 | CCc1c(O)nc(SCC(=O)N2CCCCC2)n(-c2ccccc2C)c1=O | inconclusive [inhibitor, full curve, poor fit]

Row | Structure (SMILES) | Potency
45 | CCOC(=O)c1cc(CC)sc1NC(=O)c1ccc2c(c1)OCCO2 | inconclusive [inhibitor, full curve, poor fit]
46 | Cc1oc2c(C)c3oc(=O)c(CCC(=O)NCCCN4CCOCC4)c(C)c3cc2c1C | inconclusive [inhibitor, partial curve]
47 | COc1cc(C(=O)NNC(=O)c2n[nH]c3ccccc23)cc(OC)c1OC | inconclusive [inhibitor, partial curve, poor fit]
48 | CCOc1ccc(S(=O)(=O)N2CCN(Cc3ccco3)CC2)cc1 | inconclusive [inhibitor, single point]
49 | COc1ccc(N(CC(=O)N2CC=C(c3ccccc3)CC2)S(=O)(=O)c2c(C)noc2C)cc1 | inconclusive [inhibitor, full curve, poor fit]
50 | O=S(=O)(c1ccccc1)N1CCN(Cc2cccc(Cl)c2)CC1 | inconclusive [inhibitor, full curve, poor fit]
51 | O=[N+]([O-])c1cc(Cl)ccc1-c1nc(-c2ccccc2)no1 | inactive
52 | O=C(CSC1=NCCS1)NCc1ccco1 | inconclusive [inhibitor, full curve, poor fit]
53 | COc1ccc(OC)c([C@@H]2OCCC=C[C@H]2C)c1 | inconclusive [inhibitor, full curve, poor fit]
54 | CC(C)C[C@H]1CN=C(N(C)C)N1CCCCc1ccccc1 | inconclusive [inhibitor, full curve, poor fit]
55 | COc1cc(NC(=O)C2CCC(CNc3c(N4CCCCC4)c(=O)c3=O)CC2)cc(OC)c1 (stereo not given) | inconclusive [inhibitor, full curve, poor fit]
56 | CC(C)N(Cc1ccccc1)C(=O)CN1C(=O)NC2(CCCC2)C1=O | inconclusive [inhibitor, full curve, poor fit]
57 | Cc1ccccc1C(=O)NCCCCc1ccccc1 | inconclusive [inhibitor, partial curve, poor fit]
58 | O=c1cc(-c2ccc(O)c(-c3c(O)cc(O)c4c(=O)cc(-c5ccc(O)cc5)oc34)c2)oc2cc(O)cc(O)c12 | inconclusive [inhibitor, full curve, poor fit]
59 | COc1cc2cc(CNc3ccc(C)cc3)c(=O)n(CC(=O)Nc3ccc(F)cc3F)c2cc1OC | inactive
60 | COc1ccc(C)cc1NC(=O)COC(=O)CCC(=O)c1cccs1 | inconclusive [inhibitor, full curve, poor fit]
61 | COc1ccc(-n2c(C)n[nH]c2=O)cc1OC | inconclusive [inhibitor, full curve, poor fit]
62 | C=CCN1C(=O)NC(=O)/C(=C/c2cccn2C)C1=O | inconclusive [inhibitor, full curve, poor fit]
63 | CCC(C)NC(=O)c1ccccc1NC(=O)CN1C(=O)c2cccc3cccc1c23 (stereo not given) | inactive
64 | Cc1cc(C(=O)Nc2ccccc2C(=O)O)ccc1NC(=O)COc1ccccc1Cl | inactive
65 | Cc1nc(C)c(C(=O)N2CCCC(C(=O)c3ccc4ccccc4c3)C2)s1 (stereo not given) | inconclusive [inhibitor, full curve, poor fit]
